According to PubChem BioAssay AID1963576 (National Center for Advancing Translational Sciences (NCATS), 2024):
Screen size: about 46,000 compounds; about 60 (0.1%) were called active. Inconclusive results (about 3%) are left out. The call rests on the fitted dose curve; in most records, active means well fitted inhibition curve with a large enough effect; inconclusive means small, poorly fitted or top-dose-only effect; inactive means no such curve, though single readings can be large or run the other way. Some of the results follow.

Experiment: Primary qHTS assay for Inhibitors of ovarian cancer metastasis using an organotypic tumor microenvironment (TME) model. Further: nearly all actives have a fitted effect of over 65% in size.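 On activity change, negative = inhibition: plate controls were DMSO wells for no effect and tomatine positive control wells for full effect.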
Settings: SKOV3ip1-GFP adhesion/invasion on 3D omental model, fluorescence; series mostly up to 45.8 µM; activity change, negative = inhibition: at the top concentration
In short: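 A 3D layer of primary human omental fibroblasts, mesothelial cells, fibronectin and collagen I, grown 48 hr, received SKOV3ip1-GFP cells in serum-free medium plus compounds at 0.36-46 umol/L. After 2 hr RT and 16 hr 37 C, fixed adherent GFP cells were counted; normalized to DMSO and tomatine.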

outcome, inactive:
Cc1nc2cccnc2n1-c1cccc(C(=O)N2CCN(c3cccc(Cl)c3)CC2)c1
CCCn1c(=O)n(-c2ccccc2Cl)c(=O)c2sc3ccccc3c21
COc1ccc(C2=C(C)C(=NCCCN3CCN(c4cc(C)ccc4C)CC3)NS2(=O)=O)cc1
COc1ccc(N(CC(=O)Nc2cccc(Cl)c2C)S(=O)(=O)c2c(C)nn(C)c2C)cc1
Cc1ccc(NC(=O)c2cccc3c2C(=O)N(C2CCCCC2)C3)c(C)c1
Cc1ccccc1NC(=O)Cn1c(=O)oc2cc(Br)ccc21
COc1cccc(Cn2c(CNC(=O)Cc3cccc(C)c3)nc3cccnc32)c1
CCCn1cc(S(=O)(=O)c2ccccc2)c(=O)c2cc(F)c(N3CCCC(C)C3)cc21 (stereo not given)
CCCCCOc1c(Cl)cc(C(=O)N(Cc2ccc(C)o2)C2CCS(=O)(=O)C2)cc1Cl (stereo not given)
CC1=C(C(=O)Nc2ccccc2)C(c2cccnc2)n2nc(SCc3ccccc3Cl)nc2N1 (stereo not given)
CCOc1cccc(C(c2c(C)n(C)n(-c3ccccc3)c2=O)c2c(C)n(C)n(-c3ccccc3)c2=O)c1OC
COc1ccc(CCNC(=O)CCCn2c(=O)c3ccccc3n(CC(=O)Nc3cc(Cl)ccc3C)c2=O)cc1OC
Cc1ccccc1-c1noc(CCC(=O)Nc2cccc(C)c2C)n1
O=C(Nc1cccc(OCc2cc(=O)n3c4c(sc3n2)CCCC4)c1)c1ccc(F)cc1
CCOCCCNC(=O)C(Cc1ccccc1)NS(=O)(=O)c1ccc2c(c1)c(=O)n(C)c(=O)n2C (stereo not given)
CCCCN1C(=O)C(O)(c2c[nH]c3ccccc23)c2cc(Br)ccc21 (stereo not given)
Cn1c(NCCO)nc2c1c(=O)n(Cc1cccc(F)c1)c(=O)n2C
COc1cccc(/C=C/c2nc(C#N)c(NCCc3ccc(OC)c(OC)c3)o2)c1
Cc1ccc(NC(=O)Cn2c(=O)n(Cc3ccco3)c(=O)c3sc4ccccc4c32)cc1C
Oc1c(C(c2ccc(Cl)cc2)N2CCC3(CC2)OCCO3)sc2nc(-c3ccco3)nn12 (stereo not given)
CCOc1ccccc1NC(=O)CSc1nc2cc(OC)c(OC)cc2c2nc(-c3ccccc3)nn12
O=C(Cn1c(=O)oc2ccccc21)Nc1ccc(C(=O)O)cc1
CCn1c(=O)c(C(=O)Nc2ccc(C(C)=O)cc2)nc2ccccc21
O=C(NCCn1cc(SCc2ccc(Cl)cc2)c2ccccc21)c1cccs1
COc1ccc(CNC(=O)c2ccc(NC(=O)N3CCSc4ncccc43)cc2)cc1OC

Activity change, negative = inhibition, inactive:
COc1ccc(-c2nnc(SCC(=O)NCCc3ccc(OC)c(OC)c3)nc2-c2ccc(OC)cc2)cc1 -9.94%
COc1ccc(-c2ccc3c(N)c(C(=O)Nc4ccc(C(F)(F)F)cc4)sc3n2)cc1OC -3.78%
CC1=Nc2cc(C(=O)NCc3ccccc3Cl)ccc2Sc2c(C)ccc(C)c21 -1.75%
Cc1cc(C)c(NC(=O)Cn2nc(-c3ccncc3)ccc2=O)c(C)c1 -5.29%
O=C(CN1C(=O)C(c2ccc(F)cc2)=NC12CCCCCC2)Nc1ccccc1Cl -6.56%
COc1ccccc1-c1nc2c(c(SCC(=O)Nc3ccc(C)c(C)c3)n1)Cc1c(CO)cnc(C)c1O2 23%
CCOC(=O)C1CCCN(c2cc(C)nc3c(-c4ccccc4OC)c(C)nn23)C1 (stereo not given) -0.163%
CCc1c(C)sc(NC(=O)c2cc(-c3cccc(Cl)c3)on2)c1C#N -5.86%
CCCCN(CC)CCCNC(=O)c1nn(C)c2c1CS(=O)(=O)c1ccccc1-2 5.49%
Cc1ccc(C)c(NC(=O)Cn2cc(C(=O)c3ccco3)c3ccccc32)c1 0.919%
O=C(c1cc2c(s1)-c1ccccc1OC2)N1CCN(c2ccccc2F)CC1 -0.82%
Cc1c(C)n(C)c2ccc(C(=O)NCCCN3CCCCC3C)cc12 (stereo not given) -1.62%
COc1ccc(C)cc1NC(=O)c1c(C)oc2ncn(CC(C)C)c(=O)c12 -6.14%
CCOC(=O)c1ccc(N2C(=O)c3n[nH]c(-c4ccco4)c3C2c2ccc(O)cc2)cc1 (stereo not given) 2.91%
COc1ccc(C)c2sc(N(Cc3cccnc3)C(=O)C3CCCCC3)nc12 9.48%
CCCN(CCC)CCCNC(=O)C1CCN(S(=O)(=O)CC)CC1 5.87%
Cc1ccc(S(=O)(=O)c2cc3cc(C(=O)O)ccc3oc2=O)cc1 3.45%
Cc1cc(C2CCCCC2)n(O)c(=O)c1 -9.81%
CCOC(=O)Cn1c(=O)n(C2CCCCC2)c2nc(-c3cccc(F)c3)nc(C(N)=O)c21 88.1%
CC(C)c1c(C(=O)Nc2ccccc2)c(-c2ccccc2)c(-c2ccc(F)cc2)n1CC[C@H](O)C[C@@H](O)CC(=O)O -19.4%
Cc1ccc(CSCC(=O)N2CCN(c3ccccc3F)CC2)cc1 -0.811%
CCn1cc(CCC(=O)NCc2ccccc2OC)c2ccccc21 6.67%
Cc1ccc(S(=O)(=O)CC(=O)Nc2sc3c(c2C#N)CCCC3)cc1 2.68%
CCOC(=O)c1c(NC(=O)COc2cc(C)ccc2C(C)C)sc(C)c1C 1.36%
CCOc1ccccc1NC(=O)Cn1c(=O)n(-c2ccc(F)cc2)c(=O)c2sc3ccccc3c21 7.64%
CCOc1ccc(NC(=O)c2nn(C)c3c2CS(=O)(=O)c2ccccc2-3)cc1 4.58%
CCOc1ccc(-c2nnc(SCC(=O)NCCc3ccc(OC)c(OC)c3)nc2-c2ccc(OCC)cc2)cc1 3.49%
O=C(c1cccc(Cl)c1)N1CCN(CCc2ccncc2)CC1 -8.28%
COc1ccc(C(=O)Nc2ccc3nc(N4CCC(C)CC4)cc(C)c3c2)cc1 -0.459%
COc1cc(Cl)c(C)cc1NC(=O)c1cn(C2CCCC2)c(=O)c2c1c1ccccc1n2C 5.06%
Cc1ccc2nc(-c3cc(NC(=O)/C=C/c4ccccc4)ccc3Cl)oc2c1 -21%
COc1ccc(-c2nc(CSc3nncn4c3cc3occc34)c(C)o2)cc1 -13.8%
COc1ccc(Cl)cc1-n1c(/C=C/c2cccc3ccccc23)nc2ccccc2c1=O -7.05%
CCCCN(CCCC)S(=O)(=O)c1ccc2oc(C(=O)NCc3ccc(C)cc3)c(C)c2c1 0.475%
COC(=O)c1ccc2c(c1)N(Cc1ccc(F)cc1)C(=O)c1ccccc1S2 12.7%
Cc1nn(C(=O)c2ccc(Br)cc2)c(C)c1S(=O)(=O)N1CCOCC1 21.4%
Cc1coc2c(C)c3oc(=O)c(CCC(=O)NCCc4ccccc4)c(C)c3cc12 -1.14%
CCOc1ccc(CCNC(c2cccc(Cl)c2)c2nnc(-c3ccccc3)o2)cc1OCC (stereo not given) -25.4%
CCc1ccc(-c2[nH]c3c(c2-c2sc(C)c(C(=O)OC)c2O)c(=O)[nH]c(=O)n3C)cc1 -3.35%
COc1ccc(-c2cc(C(F)(F)F)nc(SCCC(=O)Nc3cc(C)ccc3O)n2)cc1 -3.64%
COc1ccc2c(c1)sc1ncc(C(=O)NCc3ccc(OC(C)C)cc3)c(=O)n12 29.6%
O=C(NCCc1ccc(Cl)cc1)c1cnc2sc(N3CCCCC3)nn2c1=O 13.8%
CCOc1ccc(CCNC(=O)c2cnc3c(-c4ccc(F)cc4)c(C)nn3c2C)cc1OCC 11.5%
O=C(CCCN1CCN(c2ccc(F)cc2)CC1)NC1c2ccccc2CSc2ccccc21 (stereo not given) 6.25%
COc1ccc(NC(=O)c2sc3nc(-c4ccc(OC)cc4)cc(C(F)(F)F)c3c2N)cc1 9.53%
COc1ccccc1OCCSc1nc2ccccc2n1CC(=O)N1CCOCC1 -6.8%
C#CCSc1nc2sc3c(c2c(=O)n1Cc1ccccc1)CCCC3 -4.11%
Cc1ccc(C)c(CN2C(=O)c3ccccc3S(=O)(=O)c3ccc(C(=O)N4CCN(c5ccccc5)CC4)cc32)c1 13.1%
Cc1ccccc1Nc1c(-c2ccco2)nc2c(C)cccn12 -14.5%
Cc1ccc(NC(=O)CCS(=O)(=O)c2cccc3nonc23)cc1Cl -10.6%
CC1CCCCN1S(=O)(=O)c1ccc(C(=O)Nc2sc3c(c2C(N)=O)CC(C)(C)NC3(C)C)cc1 (stereo not given) 0.597%
COc1ccc(CCNC(=O)c2c(O)nc3c(C)cccn3c2=O)cc1 0.634%
COc1ccc(C(=O)N2c3ccccc3C(C)(c3ccc(Cl)cc3)CC2(C)C)cc1 (stereo not given) -0.439%
Cc1ccc(-c2onc(C)c2C)cc1S(=O)(=O)N1c2ccccc2CC1C (stereo not given) -12.1%
CCc1cncnc1N1CCN(Cc2nc3ccc(C(F)(F)F)cc3[nH]2)CC1 -13.5%
CCOCCCNC(=O)c1[nH]c2cc(C)ccc2c1Sc1ccc(Cl)cc1 10.1%
CCOC(=O)c1ccc(-n2c(C)nc3c(cnn3-c3ccc(Cl)cc3)c2=O)cc1 -14.8%
O=S1(=O)c2ccccc2N(Cc2cccc(C(F)(F)F)c2)c2ccccc21 -22.7%
CCCCN(CCCC)CCNC(=O)Cn1nc(CC)n2c(cc3sc(C)cc32)c1=O -1.07%
Cc1cccc(NC(=O)Cn2c(=O)n(CCCS(=O)(=O)C3CCCCC3)c(=O)c3ccccc32)c1 -9.23%
COc1cc(OC)c(N(C)C(=O)CCNC(=O)Cn2cnc3ccccc3c2=O)cc1Cl -6.89%
CN(C)CCNC(=O)Cn1c(=O)c2cccn2c2ccc(F)cc21 -26.6%
COc1cccc(-c2nc(SCC(=O)Nc3ccc4c(c3)OCCO4)c(-c3ccccc3)[nH]2)c1 -16.9%
CCOCCc1nn2c(=O)cc(COC(=O)c3ccccc3NC(=O)C3CCCCC3)nc2s1 12.7%
COc1ccc(Cc2ccc(NC(N)=O)cc2)cc1-c1cccc(Cl)c1 2.88%
COc1ccc(-c2oc3ncn4nc(COc5ccc(C)cc5)nc4c3c2-c2ccc(OC)cc2)cc1 -9.71%
COc1ccc(OC)c(-c2noc(N3CCN(c4ccc(C(C)=O)cc4)CC3)n2)c1 6.36%
CCOC(=O)c1c(NC(=O)CCCOc2ccc(Cl)cc2)sc2c1CCC2 2.51%
CCOC(=O)Cn1c(=O)oc2cc(S(=O)(=O)N3CCN(c4ccccc4OC)CC3)ccc21 -8.27%
COc1cccc(CN(C(=O)c2ccc(C(C)(C)C)cc2)C2CCS(=O)(=O)C2)c1 (stereo not given) 1.11%
